Laboratory results taken from PubChem BioAssay AID624296 (National Center for Advancing Translational Sciences (NCATS), 2012).
Out of some 350,000 compounds screened, about 9,900 (2.8%) were called active. This list was built around the results that the source calls inconclusive (neither active nor inactive); the mix of calls is not that of the screen. Calls follow the shape of the dose curve; as a rule, active = well fitted activation curve with a large enough effect; inconclusive = small, poorly fitted or top-dose-only effect; inactive = no such curve, though single readings can be large or run the other way. Potencies of inconclusive entries are left out as doubtful fits.
Potency is read from the fitted curve at half-maximal effect; tags tell the direction and shape of the fitted curve.

Experiment: A quantitative high throughput screen for small molecules that induce DNA re-replication in MCF 10a normal breast cells. Also: nearly all actives have a fitted effect of over 50% in size. As to activity, positive = re-replication: % of control where 0% means no effect.
Conditions: MCF 10A DNA re-replication, Hoechst nuclear intensity, 48 h; activity, positive = re-replication: at 46.1 µM (top of the series)
In the case of `COc1ccc2cc3c(N)nn(C(=O)Cc4ccc(Cl)cc4)c3nc2c1`, the Potency is reported as inconclusive [activator, single point].
For `CC(=O)Nc1ccc(SC(C)C(=O)NC(N)=O)cc1` (stereo not given), the “activity, positive = re-replication” value was inactive: -1.35%.
With `CCc1cc(=O)oc2cc(OC(C)C(=O)NCC3CCC(C(=O)O)CC3)c(Cl)cc12` (stereo not given) the Potency was inconclusive [activator, full curve, poor fit].
In the case of `COc1nnc(-c2ccc(N3CCOCC3)c(NC(=O)c3ccccc3)c2)c2ccccc12`, the Potency is reported as inconclusive [activator, partial curve, poor fit].
With `COC(=O)c1ccc(OCC(O)CN2CCc3cc(OC)c(OC)cc3C2c2ccccc2)cc1` (stereo not given) the Potency was active: 20.6 µM.
With `CN(C(=O)COC(=O)c1ccccc1SCC(=O)N1CCCC1)c1ccccc1` the Potency was inconclusive [activator, partial curve, poor fit].
In the case of `Cc1n[nH]c(=O)nc1N/N=C/c1ccco1`, the Potency is reported as inconclusive [activator, partial curve, poor fit].
For `O=c1[nH]c(CCl)nc2cc(-c3ccc(F)cc3)sc12`, the Potency was inconclusive [activator, single point].
In the case of `Nc1c(C(=O)Nc2cccc(C(=O)O)c2)sc2nc3c(cc12)CCCC3`, the Potency is reported as inconclusive [activator, single point].
In the case of `COc1ccc(NC(=O)CCC(=O)Nc2cc(OC)c(NC(=O)c3ccco3)cc2OC)c(OC)c1`, the Potency is reported as inconclusive [activator, single point].
In the case of `O=[N+]([O-])c1ccc(S(=O)(=O)c2ccccc2)nc1`, the Potency is reported as inconclusive [activator, single point].
In the case of `CCOc1ccc2[nH]c(=O)c(CN(CCN3CCCC3)C(=S)Nc3ccccc3OCC)cc2c1`, the Potency is reported as inconclusive [activator, single point].
For `Cc1ccc(Cn2c(=N)c(C(=O)NCc3ccco3)cc3c(=O)n4ccccc4nc32)cc1`, the Potency was active: 11.2 µM.
With `CCn1nc(C)c(CN2CCCCC2C(=O)Nc2ccc(Oc3cccnc3)cc2)c1C` (stereo not given) the Potency was inconclusive [activator, single point].
In the case of `Cc1c(Cc2ccccc2)sc(NC(=O)C(C)(C)C)c1C(N)=O`, the Potency is reported as inconclusive [activator, single point].
In the case of `S=c1[nH]nc(-c2cc(-c3ccccc3)n[nH]2)n1/N=C/c1cccc(Cl)c1`, the Potency is reported as active: 23.1 µM.
With `O=C(NCc1cccs1)c1cc(-c2ccccn2)nc2ccc(Br)cc12` the Potency was inconclusive [activator, single point].
With `Cc1ccc(NC(=O)c2ncn(CCCNCc3ccccn3)n2)cc1C` the Potency was inconclusive [activator, full curve, poor fit].
For `CC(=O)Nc1nc(C)c(-c2csc(Nc3cccc([N+](=O)[O-])c3)n2)s1`, the Potency was inconclusive [activator, single point].
With `N#Cc1ccsc1NC(=O)CCN1CCN(C(c2ccccc2)c2ccccc2)CC1` the Potency was inconclusive [activator, full curve, poor fit].
For `O=C(Nc1ccccc1C(=O)N1CCOCC1)c1cccnc1`, the Potency was inconclusive [activator, full curve].
In the case of `O=C(NCCCO)c1ccc(CSc2nc3ccccc3c(=O)[nH]2)cc1`, the Potency is reported as inconclusive [activator, partial curve, poor fit].
With `COc1ccc(C(=O)OCC(=O)Nc2ccc([N+](=O)[O-])cc2OC)c(O)c1` the “activity, positive = re-replication” value was inactive: -0.179%.
With `COCCn1c(=S)[nH]c2cc(C(=O)N(CCO)Cc3ccccc3)ccc2c1=O` the “activity, positive = re-replication” value was inactive: 3.58%.
With `O=C(COC(=O)/C=C/c1cccc(Cl)c1)NC(=O)NCc1ccccc1` the Potency was inconclusive [activator, single point].
With `O=C(c1cccc(S(=O)(=O)N2CCc3ccccc32)c1)N1CCCC(C(F)(F)F)C1` (stereo not given) the Potency was inconclusive [activator, partial curve, poor fit].
For `COc1cccc(Nc2ncnc3sccc23)c1`, the Potency was inconclusive [activator, single point].
With `Cc1ccc(NC(=O)c2nc[nH]c2C(=O)N[C@@H](CCCCNC(=O)OC(C)(C)C)C(=O)OC(C)(C)C)cc1` the Potency was inconclusive [activator, partial curve, poor fit].
With `Cc1ccccc1Nc1nc(N)nc(COC(=O)c2cccn2C)n1` the Potency was inconclusive [activator, single point].
With `COc1cc(C(C)=NNC(=O)c2ccncc2)ccc1O` the “activity, positive = re-replication” value was inactive: -0.409%.
For `Nc1c(C(=O)Nc2ccccc2F)sc2nc(Cc3ccccc3)cc(C(F)(F)F)c12`, the Potency was inconclusive [activator, partial curve, poor fit].
In the case of `CC(C)(C)C(=O)C(C(c1ccccc1)N1CCOCC1)N1CCOCC1` (stereo not given), the activity, positive = re-replication is reported as inconclusive: -35.3% [activator].
For `O=C(NC1CC1)C1Nc2ccc(OC(F)(F)F)cc2C2C=CCC12` (stereo not given), the Potency was inconclusive [activator, single point].
For `Nc1ccc(-n2nc3ccccc3n2)cc1`, the Potency was active: 23.1 µM.
In the case of `COc1ccc(OC)c(/C=C/C(=O)OCC(=O)Nc2ccc(Cl)c(S(=O)(=O)N(C)C)c2)c1`, the Potency is reported as inconclusive [activator, single point].
In the case of `N#CCOc1nc(N2CCCCC2)nc(N2CCCCC2)n1`, the Potency is reported as inconclusive [activator, partial curve, poor fit].
In the case of `COC(=O)C1=C(C)NC2=C(C(=O)c3ccccc32)C1c1ccc(-c2ccc(C(=O)O)cc2)o1` (stereo not given), the Potency is reported as inconclusive [activator, partial curve, poor fit].
For `CCCc1ccc2oc(C(=O)NCCc3nc(C(=O)OCC)cs3)c(C)c2c1`, the Potency was inconclusive [activator, single point].
For `COc1ccc(C2NC(=S)NC(C)=C2C(=O)Nc2ccccn2)cc1OC` (stereo not given), the Potency was inconclusive [activator, partial curve, poor fit].
With `CC(C)(C)c1ccc(C(=O)NC(=O)COC(=O)c2ccc(Br)o2)cc1` the Potency was inconclusive [activator, single point].
